Measurements reported in PubChem BioAssay AID1745853 (National Center for Advancing Translational Sciences (NCATS), 2022).
Some of the results follow. The main result of the screen is listed elsewhere. These columns were measured beside it and carry no call.

Experiments:
Experiment in all cases: Primary Screen for Target Class Profiling of Small Molecule Inhibitors of Methyltransferases
[1] = target: Glycine N-methyltransferase (Homo sapiens) (UniProt Q14749); details: purified enzyme, MTase-Glo SAH luminescence; measured here: GNMT inhibition; at 40 µM; stronger effect = lower value
Outline: (§1)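 Each enzyme was reacted with SAM and its substrate, with compounds tested once at 40 uM; SAH formed was read by MTase-Glo luminescence.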

[2] = target: Guanidinoacetate N-methyltransferase (Homo sapiens) (UniProt Q14353); details: purified enzyme, MTase-Glo SAH luminescence; measured here: GAMT inhibition; at 40 µM; stronger effect = lower value
Outline: as §1

[3] = target: Histamine N-methyltransferase (Homo sapiens) (UniProt P50135); details: purified enzyme, MTase-Glo SAH luminescence; measured here: HNMT inhibition; at 40 µM; stronger effect = lower value
Outline: as §1

[4] = target: Nicotinamide N-methyltransferase (Homo sapiens) (UniProt P40261); details: purified enzyme, MTase-Glo SAH luminescence; measured here: NNMT inhibition; at 40 µM; stronger effect = lower value
Outline: as §1

[5] = target: Phenylethanolamine N-methyltransferase (Homo sapiens) (UniProt P11086); details: purified enzyme, MTase-Glo SAH luminescence; measured here: PNMT inhibition; at 40 µM; stronger effect = lower value
Outline: as §1
On the % scale 0 is the no-effect control and ±100 the full control effect.

| SMILES | activity change, negative = inhibition [1] | activity change, negative = inhibition [2] | activity change, negative = inhibition [3] | activity change, negative = inhibition [4] | activity change, negative = inhibition [5] |
| --- | --- | --- | --- | --- | --- |
| COc1ccc2c(c1)C(CN1CCN(CC(=O)OC(C)(C)C)CC1)=CC(C)(C)O2 | 1.75% | -2.18% | 0.902% | -1.7% | -8.85% |
| CC(C)NC[C@H](O)COc1ccc(CC(N)=O)cc1 | -7.55% | 5.66% | -0.769% | -3.92% | 2.58% |
| C[C@@H]1O[C@@H](O[C@H]2[C@H](O)[C@@H](O)[C@H](OC[C@H]3O[C@@H](OC(=O)[C@]45CCC(C)(C)C[C@H]4C4=CCC6[C@@]7(C)CC[C@H](O[C@@H]8OC[C@H](O)[C@H](O[C@@H]9O[C@H](CO)[C@@H](O)[C@H](O)[C@H]9O)[C@H]8O)[C@@](C)(CO)C7CC[C@@]6(C)[C@]4(C)CC5)[C@H](O)[C@@H](O)[C@@H]3O)O[C@@H]2CO)[C@H](O)[C@H](O)[C@H]1O (stereo not given in full) | 5.22% | 2.82% | 10.9% | -9.89% | 5.44% |
| CCn1nc(C)cc1C(=O)NCc1cccnc1N1CCOCC1 | 1.5% | 0.633% | 2.06% | -5.79% | 12.6% |
| COc1ccc(N(C(=O)c2cccc(C)c2)S(=O)(=O)c2ccc3c(c2)n(C)c(=O)n3C)cc1 | -0.771% | 1.81% | 8.32% | -7.66% | 1% |
| COc1ccc(CNC(=O)C2CN(S(=O)(=O)C3CC3)CC23CCCCC3)cc1 (stereo not given) | -2.81% | -0.039% | -5.96% | -2.94% | -4.81% |
| CC1CCN(S(=O)(=O)c2ccc3c(ccn3CCC(=O)NCC3CCCO3)c2)CC1 (stereo not given) | -0.975% | -1.65% | -4.91% | -0.96% | -3.17% |
| CN(C)C[C@@H]1CN(Cc2ccccn2)C[C@H]1NC(=O)c1ccc(Cl)s1 | -5.52% | -6.08% | -4.09% | -20.2% | -18% |
| O=C1CN(Cc2cccc(Cl)c2)S(=O)(=O)c2ccccc2N1Cc1ccc(Cl)cc1 | 16.6% | 3.69% | 12.7% | 9.93% | 8.73% |
| COc1cccc([S+](=O)([O-])N2CCC23Cc2ccccc2NC3=O)c1 (stereo not given) | -1.8% | -5.34% | 1.27% | -13.6% | -2.14% |
| Cc1ccc(Cn2c(=O)c3ccc(C(=O)NC(C)C)cc3n3c(=O)[nH]nc23)cc1 | -4.18% | 0% | -3.89% | -16.5% | -11.5% |
| CCN1C(=O)c2c(C(=O)NCCc3ccccc3)ncn2CC1(C)C(=O)NC1CCCC1 (stereo not given) | -4.64% | -10.3% | -0.087% | -7.73% | -1.68% |
| COc1c2c(c(C)c3c1C(=O)OC3)OC1(C)CC(O)C34OC(OC)(CC(O)C3(C)C1C2)OC4(C)C (stereo not given) | -4.62% | 5.96% | -5.83% | -13.6% | 4.22% |
| Cn1c(=O)n(C)c2cc(S(=O)(=O)N3CCN(Cc4ccc5c(c4)OCO5)CC3)ccc21 | 0.271% | 1.04% | 0.778% | -3.83% | -1.85% |
| COC1(CC(C)C)NC(=O)C(O)(Cc2ccccc2)NC1=O (stereo not given) | 8.32% | 7.17% | 9.2% | -4.54% | 4.76% |
| COC(=O)c1ccc2nc(C[C@@H]3C[C@@H](C(C)C)[C@H](CNC(=O)c4cccnc4)C=C3C)[nH]c2c1 | -4.38% | 3.06% | -18.4% | -23.8% | 2.65% |
| COc1ccc(CCNC(=O)CCc2nnc3n(CC(C)C)c(=O)c4ccccc4n23)cc1OC | -0.913% | 3.99% | 3.87% | -34% | -1.36% |
| CO[C@@]1(NC(=O)CSCC#N)C(=O)N2C(C(=O)O)=C(CSc3nnnn3C)CS[C@@H]21 | -3.72% | 12.6% | 8.27% | 0.61% | 5.54% |
